Data from patent US20230060388A1 (SHANGHAI HENLIUS BIOTECH, published 2023).

Columns and labels:
[1] = molecular target: T1, human TIGIT expressed on cells (stably transfected Jurkat cells) (human, UniProt Q495A1 22-244); assay: cell-based or functional assay
T1 sequence: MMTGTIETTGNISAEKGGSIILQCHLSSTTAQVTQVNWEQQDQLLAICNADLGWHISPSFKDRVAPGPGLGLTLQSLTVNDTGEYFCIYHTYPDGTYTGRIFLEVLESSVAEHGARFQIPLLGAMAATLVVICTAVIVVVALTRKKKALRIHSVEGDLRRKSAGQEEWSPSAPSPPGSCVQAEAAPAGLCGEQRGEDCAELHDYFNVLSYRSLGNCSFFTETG

[2] = molecular target: T1, human TIGIT expressed on cells (stably …); assay: TIGIT WCB: whole cell binding, flow cytometry, h-TIGIT Jurkat cells; mean
Description: Affinity to TIGIT was further examined in whole cell binding assay using human TIGIT transfected Jurkat cells. Antibodies were incubated with h-TIGIT transfected Jurkat cells, and binding of antibodies to h-TIGIT was determined using a secondary anti-human-IgG Fc antibody conjugated with AlexaFluor488, which was detected by flow cytometry.

[3] = molecular target: T1, human TIGIT expressed on cells (stably …); assay: cell-based or functional assay; remark: listed apart in the source
[4] = molecular target: T2, his-tagged recombinant human PD1 ECD (human, UniProt Q15116 in part); assay: Octet, antibody loaded on the sensor, his-tagged h-PD1 ECD injected first, his-tagged h-TIGIT ECD second
T2 construct: extracellular domain; also called h-PD1 ECD (his-tagged); not shown: his tag
T2 sequence (Q15116 25-170): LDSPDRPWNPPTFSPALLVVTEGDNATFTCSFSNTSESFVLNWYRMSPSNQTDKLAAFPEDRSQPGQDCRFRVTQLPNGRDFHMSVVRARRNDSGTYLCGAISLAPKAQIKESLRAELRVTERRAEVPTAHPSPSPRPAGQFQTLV

[5] = molecular target: T1, human TIGIT expressed on cells (stably …); assay: cell-based or functional assay; remark: listed apart in the source
[6] = molecular target: T1, human TIGIT expressed on cells (stably …); assay: flow cytometry on h-TIGIT transfected Jurkat cells (whole cell binding), Alexa Fluor 488; representative of three experiments
[7] = molecular target: T1, human TIGIT expressed on cells (stably …); assay: flow cytometry on h-TIGIT transfected Jurkat cells (whole cell binding), Alexa Fluor 488 [upper panel]

B1: 2A3-LT-Fc (hotspot corrected 2A3 ML_DT, wild type Fc) (Fc fusion)
chain: QVQLVESGGGVVQPGRSLRLSCAASGGSFSSYPMGWFRQAPGKERESVAAISSDLRFTYYADSVKGRFTISRDNSKNTLYLQMNSLRAEDTAVYYCAARTSGVGYYSRAQWYDYWGQGTLVTVSS[letters of human IgG1 Fc omitted]
notes: assigned here; also called 2A3-LT-Fc wt; aTIGIT-Fc
B1 was tested, and the “EC50 (read off the curve) of the NFAT luciferase reporter activity, TIGIT blockade assay [lower panel]” value [1] was roughly 1 nM, the EC50 [2] was 0.35 nM and the “EC50 (nM), TIGIT blockade NFAT reporter, Average” value [3] was 0.57 nM. The “EC50 (nM), TIGIT blockade NFAT reporter, Exp 1” value [3] was 0.58 nM, the “EC50 (nM), TIGIT blockade NFAT reporter, Exp 2” value [3] was 0.687 nM and the “EC50 (nM), TIGIT blockade NFAT reporter, Exp 3” value [3] was 0.45 nM. For the same binder, the binding result [4] was “no binding (tested: concentrations not printed)”, the “EC50 (Mean, nM), TIGIT Blockade Assay” value [5] was 2.3 nM and the “EC50 (read off the curve)” value [6] was roughly 0.3 nM. For the same binder, the “EC50 (read off the curve)” value [7] was roughly 0.5 nM.
